# The supplement of paper PMC11876631
# ± gives the standard deviation of the averaged measurements. Laboratory Escherichia coli strains with one amino-acid change in an essential protein, pooled on minimal glucose agar with carbenicillin or gentamicin at twice the control MIC (plus kanamycin and chloramphenicol for the plasmids), 48 h. Fold change of barcode share against drug-free plates; higher = less susceptible. Active = above 20 in both replicates (the paper's putatively resistant). '<' = one read or none on drug, '>' = one read or none on a drug-free plate. Shares are relative, so most strains fall below 1 when a few take over. Listed are strains with at least 15 reads on both drug-free plates, and hits; most hits rest on fewer reference reads. Replicate rank correlation about 0.5. Edits are read from barcodes.
# Biological target: Escherichia coli (laboratory strain)
# Assay: barcode share on antibiotic plates over drug-free plates; higher = less susceptible
# Method: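 A pool of E. coli strains, each edited to carry one amino-acid change in an essential protein, was grown for 48 h on minimal glucose agar with or without antibiotic; strain barcodes were sequenced; mean of two replicates.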
# [1] = antibiotic: carbenicillin, 2× MIC (3.1 µg/mL)
# [2] = antibiotic: gentamicin, 2× MIC (MIC 0.45 µg/mL)
Protein,fold change of barcode share [1],fold change of barcode share [2]
cysD I20P (protein) MDQIRLTHLRQLEAESIHIPREVAAEFSNPVMLYSIGKDSSVMLHLARKAFYPGTLPFPLLHVDTGWKFREMYEFRDRTAKAYGCELLVHKNPEGVAMGINPFVHGSAKHTDIMKTEGLKQALNKYGFDAAFGGARRDEEKSRAKERIYSFRDRFHRWDPKNQRPELWHNYNGQINKGESIRVFPLSNWTEQDIWQYIWLENIDIVPLYLAAERPVLERDGMLMMIDDNRIDLQPGEVIKKRMVRFRTLGCWPLTGAVESNAQTLPEIIEEMLVSTTSERQGRVIDRDQAGSMELKKRQGYF,> 44.7 [active],–
cysD V23Q (protein) MDQIRLTHLRQLEAESIHIIREQAAEFSNPVMLYSIGKDSSVMLHLARKAFYPGTLPFPLLHVDTGWKFREMYEFRDRTAKAYGCELLVHKNPEGVAMGINPFVHGSAKHTDIMKTEGLKQALNKYGFDAAFGGARRDEEKSRAKERIYSFRDRFHRWDPKNQRPELWHNYNGQINKGESIRVFPLSNWTEQDIWQYIWLENIDIVPLYLAAERPVLERDGMLMMIDDNRIDLQPGEVIKKRMVRFRTLGCWPLTGAVESNAQTLPEIIEEMLVSTTSERQGRVIDRDQAGSMELKKRQGYF,0.623 ± 0.051,–
cysD V23D (protein) MDQIRLTHLRQLEAESIHIIREDAAEFSNPVMLYSIGKDSSVMLHLARKAFYPGTLPFPLLHVDTGWKFREMYEFRDRTAKAYGCELLVHKNPEGVAMGINPFVHGSAKHTDIMKTEGLKQALNKYGFDAAFGGARRDEEKSRAKERIYSFRDRFHRWDPKNQRPELWHNYNGQINKGESIRVFPLSNWTEQDIWQYIWLENIDIVPLYLAAERPVLERDGMLMMIDDNRIDLQPGEVIKKRMVRFRTLGCWPLTGAVESNAQTLPEIIEEMLVSTTSERQGRVIDRDQAGSMELKKRQGYF,1.26 ± 0.7,–
cysD V206A (protein) MDQIRLTHLRQLEAESIHIIREVAAEFSNPVMLYSIGKDSSVMLHLARKAFYPGTLPFPLLHVDTGWKFREMYEFRDRTAKAYGCELLVHKNPEGVAMGINPFVHGSAKHTDIMKTEGLKQALNKYGFDAAFGGARRDEEKSRAKERIYSFRDRFHRWDPKNQRPELWHNYNGQINKGESIRVFPLSNWTEQDIWQYIWLENIDIAPLYLAAERPVLERDGMLMMIDDNRIDLQPGEVIKKRMVRFRTLGCWPLTGAVESNAQTLPEIIEEMLVSTTSERQGRVIDRDQAGSMELKKRQGYF,0.689 ± 0.038,0.00739 ± 0.0045
cysD V23A (protein) MDQIRLTHLRQLEAESIHIIREAAAEFSNPVMLYSIGKDSSVMLHLARKAFYPGTLPFPLLHVDTGWKFREMYEFRDRTAKAYGCELLVHKNPEGVAMGINPFVHGSAKHTDIMKTEGLKQALNKYGFDAAFGGARRDEEKSRAKERIYSFRDRFHRWDPKNQRPELWHNYNGQINKGESIRVFPLSNWTEQDIWQYIWLENIDIVPLYLAAERPVLERDGMLMMIDDNRIDLQPGEVIKKRMVRFRTLGCWPLTGAVESNAQTLPEIIEEMLVSTTSERQGRVIDRDQAGSMELKKRQGYF,2.01 ± 1.9,0.182 ± 0.23
cysD I269W (protein) MDQIRLTHLRQLEAESIHIIREVAAEFSNPVMLYSIGKDSSVMLHLARKAFYPGTLPFPLLHVDTGWKFREMYEFRDRTAKAYGCELLVHKNPEGVAMGINPFVHGSAKHTDIMKTEGLKQALNKYGFDAAFGGARRDEEKSRAKERIYSFRDRFHRWDPKNQRPELWHNYNGQINKGESIRVFPLSNWTEQDIWQYIWLENIDIVPLYLAAERPVLERDGMLMMIDDNRIDLQPGEVIKKRMVRFRTLGCWPLTGAVESNAQTLPEIWEEMLVSTTSERQGRVIDRDQAGSMELKKRQGYF,1.95 ± 0.6,–
cysD V206D (protein) MDQIRLTHLRQLEAESIHIIREVAAEFSNPVMLYSIGKDSSVMLHLARKAFYPGTLPFPLLHVDTGWKFREMYEFRDRTAKAYGCELLVHKNPEGVAMGINPFVHGSAKHTDIMKTEGLKQALNKYGFDAAFGGARRDEEKSRAKERIYSFRDRFHRWDPKNQRPELWHNYNGQINKGESIRVFPLSNWTEQDIWQYIWLENIDIDPLYLAAERPVLERDGMLMMIDDNRIDLQPGEVIKKRMVRFRTLGCWPLTGAVESNAQTLPEIIEEMLVSTTSERQGRVIDRDQAGSMELKKRQGYF,0.774 ± 0.067,0.382 ± 0.47
cysD V206P (protein) MDQIRLTHLRQLEAESIHIIREVAAEFSNPVMLYSIGKDSSVMLHLARKAFYPGTLPFPLLHVDTGWKFREMYEFRDRTAKAYGCELLVHKNPEGVAMGINPFVHGSAKHTDIMKTEGLKQALNKYGFDAAFGGARRDEEKSRAKERIYSFRDRFHRWDPKNQRPELWHNYNGQINKGESIRVFPLSNWTEQDIWQYIWLENIDIPPLYLAAERPVLERDGMLMMIDDNRIDLQPGEVIKKRMVRFRTLGCWPLTGAVESNAQTLPEIIEEMLVSTTSERQGRVIDRDQAGSMELKKRQGYF,0.631 ± 0.14,0.00981 ± 0.0022
cysD V206Q (protein) MDQIRLTHLRQLEAESIHIIREVAAEFSNPVMLYSIGKDSSVMLHLARKAFYPGTLPFPLLHVDTGWKFREMYEFRDRTAKAYGCELLVHKNPEGVAMGINPFVHGSAKHTDIMKTEGLKQALNKYGFDAAFGGARRDEEKSRAKERIYSFRDRFHRWDPKNQRPELWHNYNGQINKGESIRVFPLSNWTEQDIWQYIWLENIDIQPLYLAAERPVLERDGMLMMIDDNRIDLQPGEVIKKRMVRFRTLGCWPLTGAVESNAQTLPEIIEEMLVSTTSERQGRVIDRDQAGSMELKKRQGYF,0.743 ± 0.029,0.16 ± 0.17
cysD V206W (protein) MDQIRLTHLRQLEAESIHIIREVAAEFSNPVMLYSIGKDSSVMLHLARKAFYPGTLPFPLLHVDTGWKFREMYEFRDRTAKAYGCELLVHKNPEGVAMGINPFVHGSAKHTDIMKTEGLKQALNKYGFDAAFGGARRDEEKSRAKERIYSFRDRFHRWDPKNQRPELWHNYNGQINKGESIRVFPLSNWTEQDIWQYIWLENIDIWPLYLAAERPVLERDGMLMMIDDNRIDLQPGEVIKKRMVRFRTLGCWPLTGAVESNAQTLPEIIEEMLVSTTSERQGRVIDRDQAGSMELKKRQGYF,2.47 ± 0.27,0.0315 ± 0.034
cysD I268D (protein) MDQIRLTHLRQLEAESIHIIREVAAEFSNPVMLYSIGKDSSVMLHLARKAFYPGTLPFPLLHVDTGWKFREMYEFRDRTAKAYGCELLVHKNPEGVAMGINPFVHGSAKHTDIMKTEGLKQALNKYGFDAAFGGARRDEEKSRAKERIYSFRDRFHRWDPKNQRPELWHNYNGQINKGESIRVFPLSNWTEQDIWQYIWLENIDIVPLYLAAERPVLERDGMLMMIDDNRIDLQPGEVIKKRMVRFRTLGCWPLTGAVESNAQTLPEDIEEMLVSTTSERQGRVIDRDQAGSMELKKRQGYF,> 45 [active],–
cysD I268A (protein) MDQIRLTHLRQLEAESIHIIREVAAEFSNPVMLYSIGKDSSVMLHLARKAFYPGTLPFPLLHVDTGWKFREMYEFRDRTAKAYGCELLVHKNPEGVAMGINPFVHGSAKHTDIMKTEGLKQALNKYGFDAAFGGARRDEEKSRAKERIYSFRDRFHRWDPKNQRPELWHNYNGQINKGESIRVFPLSNWTEQDIWQYIWLENIDIVPLYLAAERPVLERDGMLMMIDDNRIDLQPGEVIKKRMVRFRTLGCWPLTGAVESNAQTLPEAIEEMLVSTTSERQGRVIDRDQAGSMELKKRQGYF,4.21 ± 1.5,–
cysD V23P (protein) MDQIRLTHLRQLEAESIHIIREPAAEFSNPVMLYSIGKDSSVMLHLARKAFYPGTLPFPLLHVDTGWKFREMYEFRDRTAKAYGCELLVHKNPEGVAMGINPFVHGSAKHTDIMKTEGLKQALNKYGFDAAFGGARRDEEKSRAKERIYSFRDRFHRWDPKNQRPELWHNYNGQINKGESIRVFPLSNWTEQDIWQYIWLENIDIVPLYLAAERPVLERDGMLMMIDDNRIDLQPGEVIKKRMVRFRTLGCWPLTGAVESNAQTLPEIIEEMLVSTTSERQGRVIDRDQAGSMELKKRQGYF,1.09 ± 0.046,–
cysE L120A (protein) MSCEELEIVWNNIKAEARTLADCEPMLASFYHATLLKHENLGSALSYMLANKLSSPIMPAIAIREVVEEAYAADPEMIASAACDIQAVRTRDPAVDKYSTPLLYLKGFHALQAYRIGHWAWNQGRRALAIFLQNQVSVTFQVDIHPAAKIGRGIMLDHATGIVVGETAVIENDVSILQSVTLGGTGKSGGDRHPKIREGVMIGAGAKILGNIEVGRGAKIGAGSVVLQPVPPHTTAAGVPARIVGKPDSDKPSMDMDQHFNGINHTFEYGDGI,0.25 ± 0.055,0.0704 ± 0.095
cysE L120W (protein) MSCEELEIVWNNIKAEARTLADCEPMLASFYHATLLKHENLGSALSYMLANKLSSPIMPAIAIREVVEEAYAADPEMIASAACDIQAVRTRDPAVDKYSTPLLYLKGFHALQAYRIGHWWWNQGRRALAIFLQNQVSVTFQVDIHPAAKIGRGIMLDHATGIVVGETAVIENDVSILQSVTLGGTGKSGGDRHPKIREGVMIGAGAKILGNIEVGRGAKIGAGSVVLQPVPPHTTAAGVPARIVGKPDSDKPSMDMDQHFNGINHTFEYGDGI,0.18 ± 0.033,< 0.00471
